According to PubChem BioAssay AID504332 (National Center for Advancing Translational Sciences (NCATS), 2011):
The whole screen tested about 350,000 compounds, of which about 31,000 (8.9%) were called active. The shares of active, inactive and inconclusive entries below differ from those in the screen. Calls follow the shape of the dose curve; as a rule, active = well fitted inhibition curve with a large enough effect; inconclusive = small, poorly fitted or top-dose-only effect; inactive = no such curve, though single readings can be large or run the other way. Where the call is inconclusive, the potency comes from a doubtful curve fit.

Molecular target: Histone-lysine N-methyltransferase EHMT2 (Homo sapiens) (UniProt Q96KQ7)
Assay: qHTS Assay for Inhibitors of Histone Lysine Methyltransferase G9a; also: nearly all actives have a fitted effect of over 75% in size
Settings: G9a H3K9 monomethylation, AlphaScreen, 2 h; activity, negative = inhibition: at 59 µM (top of the series) unless noted
In short: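 Compounds were preincubated with 20 nM G9a for 15 min, after which biotinylated H3K9 peptide (500 nM) and SAM (20 uM) started a 2 h room-temperature reaction. Monomethylated product was quantified by antibody-based AlphaScreen chemiluminescence.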
% is scaled to controls: 0 for no effect and ±100 for the full control effect; potency is read from the fitted curve at half-maximal effect; tags tell the direction and shape of the fitted curve.

UniProt Q96KQ7, sequence (Q96KQ7 whole entry, looked up): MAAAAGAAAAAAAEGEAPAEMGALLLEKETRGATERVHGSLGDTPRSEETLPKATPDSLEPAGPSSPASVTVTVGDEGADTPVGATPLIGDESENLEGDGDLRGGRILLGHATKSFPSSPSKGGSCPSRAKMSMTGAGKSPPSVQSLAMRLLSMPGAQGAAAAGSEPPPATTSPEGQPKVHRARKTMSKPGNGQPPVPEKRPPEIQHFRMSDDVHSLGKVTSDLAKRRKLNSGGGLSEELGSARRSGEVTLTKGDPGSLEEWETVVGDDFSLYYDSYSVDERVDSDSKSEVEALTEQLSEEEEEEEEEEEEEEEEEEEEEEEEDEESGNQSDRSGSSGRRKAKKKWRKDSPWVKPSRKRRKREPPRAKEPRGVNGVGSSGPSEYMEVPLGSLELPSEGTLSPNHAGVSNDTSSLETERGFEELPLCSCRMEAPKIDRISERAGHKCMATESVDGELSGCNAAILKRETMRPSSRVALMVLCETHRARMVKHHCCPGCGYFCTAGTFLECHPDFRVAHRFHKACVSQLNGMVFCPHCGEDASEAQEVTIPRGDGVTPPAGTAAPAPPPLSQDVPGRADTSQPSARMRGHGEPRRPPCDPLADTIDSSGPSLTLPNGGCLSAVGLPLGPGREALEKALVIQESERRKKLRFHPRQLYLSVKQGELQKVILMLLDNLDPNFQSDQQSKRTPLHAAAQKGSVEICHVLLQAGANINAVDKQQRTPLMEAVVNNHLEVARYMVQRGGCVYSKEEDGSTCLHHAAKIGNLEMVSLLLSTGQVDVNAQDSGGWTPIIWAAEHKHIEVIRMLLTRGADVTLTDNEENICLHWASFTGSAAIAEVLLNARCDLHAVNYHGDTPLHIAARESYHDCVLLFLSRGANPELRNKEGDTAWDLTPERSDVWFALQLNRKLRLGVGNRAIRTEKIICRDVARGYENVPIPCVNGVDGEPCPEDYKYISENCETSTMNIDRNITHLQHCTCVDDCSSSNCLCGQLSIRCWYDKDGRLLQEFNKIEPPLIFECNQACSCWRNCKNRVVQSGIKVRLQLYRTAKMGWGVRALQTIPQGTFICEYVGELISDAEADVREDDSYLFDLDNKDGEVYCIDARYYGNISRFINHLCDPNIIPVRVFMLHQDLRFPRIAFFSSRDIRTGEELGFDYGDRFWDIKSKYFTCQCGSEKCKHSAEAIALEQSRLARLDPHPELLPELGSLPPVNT

SMILES	Potency	activity, negative = inhibition
S=C(NCCCN1CCOCC1)Nc1ccc(Cl)cc1Cl	inconclusive: 20 µM [inhibitor, single point]	–
O=C(CCC(=O)N(CC(=O)NC1CCCCC1)c1ccc2c(c1)OCO2)Nc1ccccn1	inconclusive: 56.2 µM [inhibitor, partial curve]	–
Cc1ccc(C(=O)Nc2nc(=O)n(C(=O)c3ccccc3Cl)s2)cc1	inconclusive: 39.8 µM [inhibitor, single point]	–
CCn1c2ccccc2c2cc(NC(=O)COC(=O)c3ccc(NC(=O)CC#N)cc3)ccc21	inconclusive: 10 µM [inhibitor, partial curve, poor fit]	–
Fc1cc(F)c2nc(Nc3nc4cc5c(cc4s3)OCO5)sc2c1	–	inactive: 12.5%
Cc1ccc(OCC(=O)NNC(=O)CCc2ccccc2)c(Br)c1	–	inactive: -4.24% [at 102 µM]
COc1ccccc1NC(=O)CSCc1nc2ccccc2[nH]1	–	inactive: 10.4%
COC(=O)CC1C(C)(C)C(OC(C)=O)[C@@]2(O)C=C3C4CC(=O)OC(c5ccoc5)[C@]4(C)CCC3[C@@]1(C)C2=O (stereo partly specified)	–	inactive: -38.6% [at 2.33 µM]
Cc1ccc(CSc2nnc(CCCCCNC(=O)OC(C)(C)C)o2)cc1	inconclusive: 28.2 µM [inhibitor, single point]	–
Cc1cccc(C(=O)NNC(=O)/C=C/C(=O)O)c1	active: 35.5 µM	–
Cc1ccc(NC(=O)CSC2=C(C#N)C(c3ccc4c(c3)OCO4)C3=C(CCCC3=O)N2)c(C)c1 (stereo unspecified)	active: 50.1 µM	–
Cc1ccc(Cl)cc1N1CCN(C(=O)CCn2c(=O)c3cccn3c3cccnc32)CC1	–	inactive: -6.74%
Cc1cccc(N(C)c2cc(C)nc3nc(C)nn23)c1	inconclusive: 25.1 µM [inhibitor, partial curve, poor fit]	–
Cc1c(C)n(Cc2ccccc2)c2ncnc(N)c12	inconclusive: 39.8 µM [inhibitor, single point]	–
CN1CCN(c2ccc(NC(=O)COc3ccccc3[N+](=O)[O-])cc2)CC1	inconclusive: 89.1 µM [inhibitor, single point]	–
CN1CCN(c2ccc(S(=O)(=O)N3CCCCC3)cc2NC(=O)COc2ccc(F)cc2)CC1	active: 28.2 µM	–
COc1cc(S(=O)(=O)NCC(c2ccco2)N2CCCCC2)ccc1NC(C)=O (stereo unspecified)	inconclusive: 35.5 µM [inhibitor, single point]	–
CCCOc1ccc(C(C(=O)OCCN(CC)CC)c2ccccc2)cc1 (stereo unspecified)	active: 8.91 µM	–
CCCCn1c(N)c(N(CCOC)C(=O)c2ccc(COc3ccccc3)o2)c(=O)[nH]c1=O	inconclusive: 89.1 µM [inhibitor, single point]	–
N=C1C(c2nc(-c3ccc(Cl)cc3)cs2)=C(O)CN1CCCN1CCOCC1	–	inconclusive: -54.4% [inhibitor]
Cc1cccc(OCc2nc(-c3ccc(-n4cccc4)cc3)no2)c1	inconclusive: 79.4 µM [inhibitor, single point]	–
Cc1ccc(C(=O)NC(=S)Nc2ccc(S(=O)(=O)N3CCN(C)CC3)cc2)cc1	inconclusive: 31.6 µM [inhibitor, single point]	–
O=C(Oc1c(Cl)cc(Cl)c2cccnc12)c1cccc([N+](=O)[O-])c1	inconclusive: 12.6 µM [inhibitor, partial curve, poor fit]	–
Cc1cc(C)nc(SCCC(=O)N(C)C)n1	active: 8.91 µM	–

SMILES	Potency	activity, negative = inhibition
CCOc1cccc(/C=N/NC(=O)c2ccc3c(c2)OCCO3)c1O	–	inactive: -6.17% [at 102 µM]
CCOc1ccc(OCC)c(NC(=O)c2ccc(CNc3c(N4CCOCC4)c(=O)c3=O)cc2)c1	inconclusive: 39.8 µM [inhibitor, partial curve, poor fit]	–
COc1cc2c(cc1OC)CN(C(=O)c1cc(C3CC3)nn1-c1ccccc1)CC2	inconclusive: 28.2 µM [inhibitor, single point]	–
COC(=O)CCC(=O)Nc1sc2c(c1C#N)CCCC2	inconclusive: 79.4 µM [inhibitor, partial curve, poor fit]	–
Cc1ccc(C2c3c(oc4ccc(Cl)cc4c3=O)C(=O)N2CCCN2CCOCC2)o1 (stereo unspecified)	inconclusive: 28.2 µM [inhibitor, partial curve, poor fit]	–
CCc1ccc2oc(-c3ccc(OC)cc3)cc(=Nc3cccc(C(=O)O)c3)c2c1	inconclusive: 39.8 µM [inhibitor, partial curve]	–
COc1ccc(NC(=O)c2ccc(CNc3c(NC4CCCCC4)c(=O)c3=O)cc2)cc1OC	inconclusive: 56.2 µM [inhibitor, partial curve, poor fit]	–
CC(C(=O)O)C(=O)O	active: 10 µM	–
Cc1oc2ccc(O)c(CN3CCCCC3C)c2c1C(=O)Nc1ccccc1 (stereo unspecified)	–	inactive: -5.36%
Cc1ccc(-c2csc(NC(=O)C3=COCCO3)n2)cc1	inconclusive: 100 µM [inhibitor, single point]	–
CCc1ccccc1NC(=O)CSc1nc2ncccc2o1	–	inactive: 5.47%
C[N+](C)(C)C/C=C1/COCO1	active: 50.1 µM	–
COCCN(C(=O)COc1ccc(Cl)cc1)c1nnc(-c2cccnc2)s1	inconclusive: 31.6 µM [inhibitor, single point]	–
CCCCCc1ccc(OCCCC[n+]2cccc(C)c2)c(CCCCC)c1	inconclusive: 79.4 µM [inhibitor, single point]	–
COc1ccc(NC(=O)C2CCCN2c2ccc(OC)c(OC)c2)cc1OC (stereo unspecified)	active: 70.8 µM	–
O=c1c2c3c(sc2n(Cc2ccccc2F)c(=O)n1-c1ccc(Cl)cc1)CCCC3	–	inactive: 5.93%
Cc1cc2c(cc3c(SCc4cccc(F)c4)nnc(C)n32)o1	inconclusive: 20 µM [inhibitor, single point]	–
O=C(CSCCSCC(=O)c1ccco1)c1ccco1	active: 10 µM	–
COc1ccccc1NCc1ccc([N+](=O)[O-])s1	active: 7.94 µM	–
CCCOC(=O)CCCN1C(=O)/C(=C2\SC(=S)N(CCCC(=O)OCCC)C2=O)SC1=S	active: 1.12 µM	–
CCC(=O)Nc1ccc(C(=O)CSc2nnc(-c3ccccc3F)n2C2CC2)cc1	inconclusive: 70.8 µM [inhibitor, single point]	–
Cc1ccc(CSc2nnc([C@@H](N)C(C)C)o2)cc1	–	inactive: -28.3%
COc1ccc(-c2nc(NC(C)=O)sc2-c2ccc(OC)cc2)cc1	–	inconclusive: -57.8% [inhibitor] [at 102 µM]
O=C(N=C1SC2CS(=O)(=O)CC2N1c1ccc(Cl)cc1Cl)C1CC1 (stereo unspecified)	active: 79.4 µM	–

SMILES	Potency	activity, negative = inhibition
Cc1c(C)c2c(cc(C)c3c(-c4ccc(Br)cc4)coc32)oc1=O	–	inactive: -10.5%
Cc1ccc(S(=O)(=O)NNC(=O)c2sccc2-n2cccc2)cc1	–	inactive: 10.3%
Cc1cc(Br)ccc1NC(=O)CN(C)C(=O)c1ccc(-n2cncn2)c([N+](=O)[O-])c1	inconclusive: 0.794 µM [inhibitor, partial curve, poor fit]	–
COc1ccc(N(Cc2cc3cccc(C)c3[nH]c2=O)S(C)(=O)=O)cc1	inconclusive: 89.1 µM [inhibitor, single point]	–
Fc1ccc(Cn2cc(C(=S)N3CCOCC3)c3ccccc32)cc1	inconclusive: 44.7 µM [inhibitor, partial curve]	–
Cc1c(C)c2ccc(OCC(=O)c3ccccc3)cc2oc1=O	inconclusive: 89.1 µM [inhibitor, single point]	–
COc1ccc(CNC(=O)Cn2c(=O)oc3ccccc32)cc1OC	inconclusive: 12.6 µM [inhibitor, partial curve, poor fit]	–
Cc1nc2c(c(=O)n1Cc1ccco1)c1nc3ccccc3nc1n2Cc1ccccc1	inconclusive: 3.55 µM [inhibitor, single point]	–
COc1cccc(NC(=O)CSc2nc(C)c(Cc3ccccc3)c(=O)[nH]2)c1	–	inactive: -1.96%
CCOC(=O)c1c(C)[nH]c(C)c1S(=O)(=O)NCC(=O)Nc1cccc(SC)c1	inconclusive: 35.5 µM [inhibitor, partial curve, poor fit]	–
O=c1cc(CN2CCc3ccccc3C2)nc2sccn12	active: 79.4 µM	–
COCCNC(=S)Nc1ccc2nc(N3CCCC3)cc(C)c2c1	active: 70.8 µM	–
O=C(O)c1cc(-c2ccc(/C=C3\NC(=O)N(c4ccccc4)C3=O)o2)ccc1Cl	active: 44.7 µM	–
Cc1cc(C)nc(NS(=O)(=O)c2ccc(N3Cc4ccccc4C3=O)cc2)n1	inconclusive: 89.1 µM [inhibitor, single point]	–
Cc1ccc(OCC(=O)NNC(=O)CCc2ccccc2)cc1	–	inactive: 109%
COc1ccc(-c2nsc(SCC(=O)NCC3CCCO3)n2)cc1 (stereo unspecified)	active: 7.94 µM	–
COc1ccc2[nH]c(C(=O)O)c(CCN3C(=O)c4ccc(C(=O)O)cc4C3=O)c2c1	inconclusive: 89.1 µM [inhibitor, single point]	–
O=C(CSc1ncccc1C(=O)O)NCc1ccc(F)cc1	inconclusive: 39.8 µM [inhibitor, single point]	–
Cc1cc(NC2CCCCC2)nc(-c2ccccc2O)n1	active: 17.8 µM	–
CCCCOc1ccc(C2=NC(c3cccs3)=Nc3ccc(OC)cc3N2)cc1	inconclusive: 11.2 µM [inhibitor, partial curve]	–
COc1ccc(NC(=O)c2c(NCc3cccc(F)c3)sc3c2CCC3)c(OC)c1	inconclusive: 3.55 µM [inhibitor, partial curve]	–
O=C(O)c1ccc(NC(=O)c2cccc(C(=O)Nc3ccc(C(=O)O)cc3)c2)cc1	inconclusive: 70.8 µM [inhibitor, single point]	–
CC(=O)Nc1ccc(SCC(=O)c2cc(C)n(-c3ccccc3F)c2C)cc1	inconclusive: 22.4 µM [inhibitor, single point]	–
